# Measured values as given in patent publication US20240199692A1 (priority 2019, published 2024).
# At least one peptide structure holds a part that was inferred or is arguable (an end, a ring closure or a residue).
# Target: T1, MMP2 (Homo sapiens, UniProt P08253)
# T1 sequence (P08253 110-660): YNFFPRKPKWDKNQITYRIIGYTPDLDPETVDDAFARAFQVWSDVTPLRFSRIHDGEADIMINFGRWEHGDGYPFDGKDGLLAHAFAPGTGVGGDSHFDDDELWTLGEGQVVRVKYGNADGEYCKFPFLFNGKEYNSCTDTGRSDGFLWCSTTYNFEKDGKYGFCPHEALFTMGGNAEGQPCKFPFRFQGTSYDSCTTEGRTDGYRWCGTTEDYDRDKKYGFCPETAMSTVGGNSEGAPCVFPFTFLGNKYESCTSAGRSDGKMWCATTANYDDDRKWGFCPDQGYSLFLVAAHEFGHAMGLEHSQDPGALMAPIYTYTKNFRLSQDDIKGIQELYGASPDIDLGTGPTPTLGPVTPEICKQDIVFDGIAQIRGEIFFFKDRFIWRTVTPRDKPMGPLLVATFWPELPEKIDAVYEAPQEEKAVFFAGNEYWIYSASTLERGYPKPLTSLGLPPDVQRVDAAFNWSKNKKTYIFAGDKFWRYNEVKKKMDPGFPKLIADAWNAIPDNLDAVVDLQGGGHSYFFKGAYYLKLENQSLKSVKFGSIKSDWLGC
# Experiment: Inhibitory effects on human MMP2 (Method 1), enzyme assay with MOCAc-Pro-Leu-Gly-Leu-A2pr(Dnp)-Ala-Arg-NH2 substrate, 96-well
# Format: biochemical
# Details: Test Example No. 1-1 (Method 1, 96-well microplate)
# Description: In a reaction solution [50 mmol/L Tris-HCl (pH 7.5), 150 mmol/L NaCl, 10 mmol/L CaCl2, 0.05% Brij L23], 100 μg/mL human recombinant MMP2 enzyme and 1 mmol/L 4-Aminophenylmercuric acetate were mixed together, and reacted at 37° C. for 60 minutes. The human MMP2 activated through the reaction was poured into a 96-well microplate to reach a final concentration of 0.7 or 7 ng/mL.
row,Compound,IC50 [nM]
1,CC(C)C[C@H](NC(=O)[C@H](CCN)NC(=O)[C@H](CC(=O)O)NC(=O)[C@H](CCC(N)=O)NC(=O)CCCCNC(=O)c1ccc(Oc2ccc(C(N)=O)cc2)cc1)C(=O)N(C)[C@@H](CCC(=O)O)C(=O)N1CCCC[C@H]1C(N)=O [Compound 426],0.27
2,CC[C@H](C)[C@@H](C(=O)N1CCC[C@H]1CC(=O)N[C@@H](CCCNC(=N)N)C(=O)N[C@@H](CCCNC(=N)N)C(N)=O)N(C)C(=O)[C@H](CC(C)C)NC(=O)[C@H](CCN)NC(=O)[C@H](CC(=O)O)NC(=O)[C@H](CCC(N)=O)NC(=O)CCCCNC(=O)c1ccc(Oc2ccc(C(N)=O)cc2)cc1 [Compound 430],0.071
3,CC[C@H](C)[C@@H](C(=O)NC[C@H](N)C(N)=O)N(C)C(=O)[C@H](CC(C)C)NC(=O)[C@H](CCN)NC(=O)[C@H](CC(=O)O)NC(=O)[C@H](CCC(N)=O)NC(=O)CCCCNC(=O)c1ccc(Oc2ccc(C(N)=O)cc2)cc1 [Compound 437],0.21
4,CC[C@H](C)[C@@H](C(=O)NC[C@@H](N)C(N)=O)N(C)C(=O)[C@H](CC(C)C)NC(=O)[C@H](CCN)NC(=O)[C@H](CC(=O)O)NC(=O)[C@H](CCC(N)=O)NC(=O)CCCCNC(=O)c1ccc(Oc2ccc(C(N)=O)cc2)cc1 [Compound 438],0.26
5,CC[C@H](C)[C@@H](C(=O)NCC[C@H](N)C(N)=O)N(C)C(=O)[C@H](CC(C)C)NC(=O)[C@H](CCN)NC(=O)[C@H](CC(=O)O)NC(=O)[C@H](CCC(N)=O)NC(=O)CCCCNC(=O)c1ccc(Oc2ccc(C(N)=O)cc2)cc1 [Compound 439],0.16
6,CC[C@H](C)[C@@H](C(=O)NCCC[C@@H](N)C(N)=O)N(C)C(=O)[C@H](CC(C)C)NC(=O)[C@H](CCN)NC(=O)[C@H](CC(=O)O)NC(=O)[C@H](CCC(N)=O)NC(=O)CCCCNC(=O)c1ccc(Oc2ccc(C(N)=O)cc2)cc1 [Compound 450],0.24
7,CC[C@H](C)[C@@H](C(=O)NCCCC(=O)N[C@@H](CCCNC(=N)N)C(N)=O)N(C)C(=O)[C@H](CC(C)C)NC(=O)[C@H](CCN)NC(=O)[C@H](CC(=O)O)NC(=O)[C@H](CCC(N)=O)NC(=O)CCCCNC(=O)c1ccc(Oc2ccc(C(N)=O)cc2)cc1 [Compound 457],0.24
8,CC(C)C[C@H](NC(=O)[C@H](CCN)NC(=O)[C@H](CC(=O)O)NC(=O)[C@H](CCC(N)=O)NC(=O)CCCCNC(=O)c1ccc(Oc2ccc(C(N)=O)cc2)cc1)C(=O)N(C)[C@H](C(=O)NCCCCC(N)=O)C(C)C [Compound 485],0.096
9,CC(C)C[C@H](NC(=O)[C@H](CCN)NC(=O)[C@H](CC(=O)O)NC(=O)[C@H](CCC(N)=O)NC(=O)CCCCNC(=O)c1ccc(Oc2ccc(C(N)=O)cc2)cc1)C(=O)N(C)[C@H](C(=O)NCCCCC(=O)N[C@H](CCCCN)C(N)=O)C(C)C [Compound 515],0.29
10,CC[C@H](C)[C@@H](C(=O)NCCCC[C@@H](N)C(=O)N[C@H](CCCNC(=N)N)C(N)=O)N(C)C(=O)[C@H](CC(C)C)NC(=O)[C@H](CCN)NC(=O)[C@H](CC(=O)O)NC(=O)[C@H](CCC(N)=O)NC(=O)CCCCNC(=O)c1ccc(Oc2ccc(C(N)=O)cc2)cc1 [Compound 518],1.4
11,CC[C@H](C)[C@@H](C(=O)NCCCC[C@@H](N)C(=O)N[C@H](CCCCN)C(N)=O)N(C)C(=O)[C@H](CC(C)C)NC(=O)[C@H](CCN)NC(=O)[C@H](CC(=O)O)NC(=O)[C@H](CCC(N)=O)NC(=O)CCCCNC(=O)c1ccc(Oc2ccc(C(N)=O)cc2)cc1 [Compound 519],1.6
12,CC[C@H](C)[C@@H](C(=O)NCCCCC(N)=O)N(C)C(=O)[C@H](CC(C)C)NC(=O)[C@H](CCN)NC(=O)[C@H](CC(=O)O)NC(=O)[C@H](N)CCCCNC(=O)c1ccc(Oc2ccc(C(N)=O)cc2)cc1 [Compound 522],3.1
13,CC[C@H](C)[C@@H](C(=O)NCCCCC(N)=O)N(C)C(=O)[C@H](CC(C)C)NC(=O)[C@H](CCN)NC(=O)[C@H](CC(=O)O)NC(=O)[C@@H](N)CCCCNC(=O)c1ccc(Oc2ccc(C(N)=O)cc2)cc1 [Compound 523],1.9
14,CC(C)C[C@H](NC(=O)[C@H](CCN)NC(=O)[C@H](CC(=O)O)NC(=O)[C@H](CCC(N)=O)NC(=O)CCCCNC(=O)c1ccc(Oc2ccc(C(N)=O)cc2)cc1)C(=O)N(C)[C@@H](CC(C)C)C(=O)NCCCC[C@@H](N)C(N)=O [Compound 576],2.8
15,CC[C@H](C)[C@@H](C(=O)N1CCC[C@H]1CC(N)=O)N(C)C(=O)[C@H](CC(C)C)NC(=O)[C@H](CCN)NC(=O)C[C@@H](NS(=O)(=O)c1ccc(-c2ccc(OC(F)(F)F)cc2)cc1)C(=O)O [Compound 616],0.36
16,COc1ccc(-c2ccc(S(=O)(=O)N[C@H](CCC(=O)N3C[C@@H](N)C[C@H]3C(=O)N[C@@H](CC(C)C)C(=O)N(C)[C@@H](CCC(=O)O)C(=O)N3CCC[C@H]3CC(N)=O)C(=O)O)cc2)cc1 [Compound 630],0.11
17,CC[C@H](C)[C@@H](C(=O)N1CCC[C@H]1CC(N)=O)N(C)C(=O)[C@H](CC(C)C)NC(=O)[C@H](CN)NC(=O)C[C@@H](NS(=O)(=O)c1ccc(-c2ccc(CO)cc2)cc1)C(=O)O [Compound 641],0.57

row,Compound,IC50 [nM]
1,CC[C@H](C)[C@@H](C(=O)N1CCC[C@H]1CC(N)=O)N(C)C(=O)[C@H](CC(C)C)NC(=O)[C@H](CCN)NC(=O)C[C@@H](NS(=O)(=O)c1ccc(NC(=O)c2ccccc2)cc1)C(=O)O [Compound 647],0.35
2,CC[C@H](C)[C@@H](C(=O)N1CCC[C@H]1CC(N)=O)N(C)C(=O)[C@H](CC(C)C)NC(=O)[C@H](CN)NC(=O)CC[C@H](NS(=O)(=O)c1ccc(NC(=O)c2ccccc2)cc1)C(=O)O [Compound 649],0.7
3,CC[C@H](C)[C@@H](C(=O)N1CCC[C@H]1CC(N)=O)N(C)C(=O)[C@H](CC(C)C)NC(=O)[C@H](CN)NC(=O)CC[C@@H](NS(=O)(=O)c1ccc(NC(=O)c2ccccc2)cc1)C(=O)O [Compound 651],2
4,CC(C)C[C@H](NC(=O)[C@H](CCN)NC(=O)CC[C@@H](NS(=O)(=O)c1ccc(NC(=O)c2ccccc2)cc1)C(=O)O)C(=O)N(C)[C@@H](CCC(=O)O)C(=O)N1CCC[C@H]1CC(N)=O [Compound 652],1.1
5,CC(C)C[C@H](NC(=O)[C@H](CN)NC(=O)C[C@@H](NS(=O)(=O)c1ccc(NC(=O)c2ccc(C(F)(F)F)cc2)cc1)C(=O)O)C(=O)N(C)[C@@H](CCC(=O)O)C(=O)N1CCC[C@H]1CC(N)=O [Compound 662],0.093
6,CC[C@H](C)[C@@H](C(=O)N1CCC[C@H]1CC(N)=O)N(C)C(=O)[C@H](CC(C)C)NC(=O)[C@H](CN)NC(=O)C[C@@H](NS(=O)(=O)c1ccc(NC(=O)c2ccc(C(F)(F)F)cc2)cc1)C(=O)O [Compound 663],0.13
7,CC(C)C[C@H](NC(=O)[C@H](CCN)NC(=O)C[C@@H](NS(=O)(=O)c1ccc(NC(=O)c2ccc(C(F)(F)F)cc2)cc1)C(=O)O)C(=O)N(C)[C@@H](CCC(=O)O)C(=O)N1CCC[C@H]1CC(N)=O [Compound 664],0.19
8,CC[C@H](C)[C@@H](C(=O)N1CCC[C@H]1CC(N)=O)N(C)C(=O)[C@H](CC(C)C)NC(=O)[C@H](CCN)NC(=O)C[C@@H](NS(=O)(=O)c1ccc(NC(=O)c2ccc(C(F)(F)F)cc2)cc1)C(=O)O [Compound 665],0.17
9,CC[C@H](C)[C@@H](C(=O)N1CCC[C@H]1CC(N)=O)N(C)C(=O)[C@H](CC(C)C)NC(=O)[C@H](CN)NC(=O)C[C@@H](NS(=O)(=O)c1ccc(NC(=O)c2ccc(C#N)cc2)cc1)C(=O)O [Compound 672],0.23
10,CC[C@H](C)[C@@H](C(=O)N1CCC[C@H]1CC(N)=O)N(C)C(=O)[C@H](CC(C)C)NC(=O)[C@H](CCN)NC(=O)C[C@@H](NS(=O)(=O)c1ccc(NC(=O)c2ccc(C(=O)NC)cc2)cc1)C(=O)O [Compound 676],0.49
11,CC[C@H](C)[C@@H](C(=O)N1CCC[C@H]1CC(N)=O)N(C)C(=O)[C@H](CC(C)C)NC(=O)[C@H](CCN)NC(=O)C[C@@H](NS(=O)(=O)c1ccc(NC(=O)c2ccc(C(=O)N(C)C)cc2)cc1)C(=O)O [Compound 677],6.3
12,CC(C)C[C@H](NC(=O)[C@H](CCN)NC(=O)C[C@@H](NS(=O)(=O)c1ccc(NC(=O)c2ccc(C(=O)N(C)C)cc2)cc1)C(=O)O)C(=O)N(C)[C@@H](CCC(=O)O)C(=O)N1CCC[C@H]1CC(N)=O [Compound 681],4.1
13,COc1ccc(C(=O)Nc2ccc(S(=O)(=O)N[C@H](CC(=O)N[C@@H](CCN)C(=O)N[C@@H](CC(C)C)C(=O)N(C)[C@@H](CCC(=O)O)C(=O)N3CCC[C@H]3CC(N)=O)C(=O)O)cc2)cc1 [Compound 693],0.079
14,CC[C@H](C)[C@@H](C(=O)N1CCC[C@H]1CC(N)=O)N(C)C(=O)[C@H](CC(C)C)NC(=O)[C@H](CCN)NC(=O)CC[C@@H](NS(=O)(=O)c1ccc(NC(=O)c2ccc(OC(C)C)cc2)cc1)C(=O)O [Compound 699],0.27
15,CC(C)C[C@H](NC(=O)[C@H](C)NC(=O)C[C@@H](NS(=O)(=O)c1ccc(NC(=O)c2ccc(Cl)cc2)cc1)C(=O)O)C(=O)N(C)[C@@H](CCC(=O)O)C(=O)N1CCC[C@H]1CC(N)=O [Compound 714],0.065
16,CC[C@H](C)[C@@H](C(=O)N1CCC[C@H]1CC(N)=O)N(C)C(=O)[C@H](CC(C)C)NC(=O)[C@H](C)NC(=O)C[C@@H](NS(=O)(=O)c1ccc(NC(=O)c2ccc(Cl)cc2)cc1)C(=O)O [Compound 715],0.069
